The results in this text go back to the RNAGym collection of RNA variant scans (doi:10.1093/nar/gkz1192).

The source gives no read counts; variants with many changes may rest on few reads.

First the molecules themselves.
B1: CPEB3 Ribozyme (parent)
chain: UAACAGGGGGCCACAGCAGAAGCGUUCACGUCGCAGCCCCUGUCAGAUUCUGGUGAAUCUGCGAAUUCUGCUGUAUAUCUC

The data set covers variants of B1. Put plainly: self-cleavage, relative activity (ratio to wild type); higher = more cleavage; in vitro, sequencing. Summed up:
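Relative activity compares each variant's cleaved/total read fraction with that of the unmutated ribozyme. To get these fractions, barcoded CPEB3 ribozyme libraries from rounds of error-prone PCR were transcribed with T7 RNA polymerase for 5 hours at 37°C and then given 15 min of DNase I treatment before EDTA was added. The RNAs were reverse transcribed with template switching and sequenced on Illumina, and DNA sequencing linked barcodes to variants. A minimum of 5 reads applied, and three batches were averaged.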
For the variant UAACAGGGGGCCACAGCAUAGGCGUUCACGUCGCAGCCCCUGUCUGUUUCUGGUGAAUCCGCGAAUUCUGCUAUAUAUCUC [G19U A21G A45U A47U U60C G73A], the self-cleavage turned out to be 0.1.
Consider UAACAGGGGGCCACAGCACGAGCGUUCACGUCGCAGUCCCUGUCAGAUUCUGGUGAAUCCGGGAAUUCUGCUAUAUAUCUC [G19C A20G C37U U60C C62G G73A], for which the self-cleavage is 0.04.
Turning to UAACAGGGGGCCACAGCACAAGCGUUCACGUCGCAGCCCCUGUCAGGUUCUGGUGAAUCUGCGGAUUCUGCUGUAUAUCUC [G19C A47G A64G], the self-cleavage was found to be 0.1.
With UAACAGGGGGCCACAGCAAAAGCGAUCACGUCGCAGCCCCUGUCAGAUUCUGGUGAGUCUGCGAAUUCUGCUGUAUAUCUC [G19A U25A A57G] the figure was 0.16; with UAACAGGGGGCCACAGCAAGAGCGUUCACGUCGCAGCCCCUGUCAGAUUCUGGCGAAUCCGCGAAUUCAGCUGUAUAUCUC [G19A A20G U54C U60C U69A], 0.16.
Consider UAACAGGGGGCCACAGCAAAAGCGUUCACGUCGCAUCCCCUGUCAGAUUCUGGUGAAUCUGCGAAUUCUGCUGUAAAUCUC [G19A G36U U76A], for which the self-cleavage is 0.17.
Consider UAACAGGGGGCCACAGCACAAGCGUUCUCGUCGCAGCCCCUGUCAGUUUCUGGUGAAUCUGCGAAUUCUGCUGGAUAUCUC [G19C A28U A47U U74G], for which the self-cleavage turned out to be 0.25.
Regarding UAACAGGGGGCCACAGCACAAGCGUUCACGUCGCAGCGCCAGUCAGAUUCUGGUGAAUCUGCGAAGACUGCUGCAUAUCUC [G19C C38G U41A U66G U67A U74C], the self-cleavage was found to be 0.07.
With UAACAGGGGGCCACAGCACAAGCGUCCACGUUGCAGCCCCUGUCAGAUUCUGGUGAGUCUGCGAAUUCUGCUGUAUAUCUC [G19C U26C C32U A57G] the figure was 0.16; with UAACAGGGGGCCACAGCAAAAGCGUUCACGUCGCGGCCCCUGUCAGAUUCUGGCGAAUCUGCGGAUUCUGCUGUACAUCUC [G19A A35G U54C A64G U76C], 0.58.
With UAACAGGGGGCCACAGCAAAAGCGUUCACGUCGCAGCCCCUGUCAGAUUCUGGUGAAUCUGCGAAUUCUGCUGUUUACCUC [G19A A75U U78C] the figure was 0.04.
Regarding UAACAGGGGGCCACAGCAAAAGCGUUCACGUCGCAGCCCCUGUCAGAUCCUGGUGAACCUGCGAAUUCUGCUGUAUAUCUG [G19A U49C U58C C81G], the self-cleavage turned out to be 0.15.
With UAACAGGGGGCCACAGCACUAGCGUUCACGUCGCAGCCCCUGUCAGAUUCUGGUGAAUCUGCGAGUUCUGCUGUAUAUCUC [G19C A20U A65G] the figure was 0.18; with UAACAGGGGGCCACAGCACAAGCGUUCACGUCGCAGCCCCUGUCAGAUUCUGGUGAAUCUGCGAUUUCUGCUGAAUAUCUC [G19C A65U U74A], 0.13.
With UAACAGGGGGCCACAGCACAAGCGUUCACGUCGCAGCCCCUGCCAGAUUCUUGUGAAUCUGCGAAUUCCGCCGUAUAUCUC [G19C U43C G52U U69C U72C] the figure was 0.23.
In the case of UAACAGGGGGCCACAGCACGAGCGUUCACGUCGCAGCCCCUGUCAGAUUCUGGUGAAUCUGCGAAUUCUGCAGUAUAUCUC [G19C A20G U72A], the self-cleavage amounted to 0.25.
For UAACAGGGGGCCACAGCACAAGCGUUCACGUCGCAGCCCCUGUCAGGUUCUGGUGAAUCUGCGGAUUCUGCCGUAUACCUC [G19C A47G A64G U72C U78C], the self-cleavage was determined as 0.09.
The result for UAACAGGGGGCCACAGCAAAAGCGUUCACGUCGCAGCCCUUGUGAGAUUCUGGUGGUUCUGCGAACUCUGCUGUAUAUCUC [G19A C40U C44G A56G A57U U66C] reads 0.11; that for UAACAGGGGGCCACAGCAAAAGCGUUCACGUCGCUGCCCCUGUCAGAUACUGGUGGAUCUGCGAAUUCUGCUGUAUAUCUC [G19A A35U U49A A56G], 0.04; that for UAACAGGGGGCCACAGCAAAAGCGUUCACGUAGCAGCCCCUGUCAGAUUCUGGUGAAUCCGCGGAUUCUGCUGUAUAUCUC [G19A C32A U60C A64G], 0.08.
With UAACAGGGGGCCACAGCAAAAGCGCUCACGUCGCAGCCCCUGUCAGAUUCUGGUGAAUCUGCGAAUUCUGCUGUUUAUCUC [G19A U25C A75U] the figure was 0.09; with UAACAGGGGGCCACAGCAUAGGCGUUCACGUCGCAGCCCCUGUCAGAUUCUGGCGAAUCUGCGAAUUCUGCUGUAUAUCUC [G19U A21G U54C], 0.2.
The result for UAACAGGGGGCCACAGCACAAGCGUUCUUGUCGUAGCCCCUGUCAGAUUCAGGUGAGUCUGCGUAUUCUGCUGUAUAUCUC [G19C A28U C29U C34U U51A A57G A64U] reads 0.04; that for UAACAGGGGGCCACAGCAUAGGCGUCCACGUCGCAGCCCCAGUCAGAUUCUGGUGAAUCCGCGAAUUCUGCUGUAUAUCUC [G19U A21G U26C U41A U60C], 0.05.
Consider UAACAGGGGGCCACAGCAAAAGCGUUCACGUCGCAGCCCCUGUCAGAUUCUGGUGAAUCUGCGAAUCCUGCUGUAUUUCUC [G19A U67C A77U], for which the self-cleavage was 0.07.
The result for UAACAGGGGGCCACAGCAAAAGCGUUCACGUCGCCGCCUCUGUCAGAUUCUGGUGAAUCCGCGAAUUCUGCUGUAUAUCUC [G19A A35C C39U U60C] reads 0.1; that for UAACAGGGGGCCACAGCAAAAGCGUUCACGUCGCGGCCCCUGUCAGAUUCUGGUGAAUCUGAGAAUUCUGCUGUAUAUCAC [G19A A35G C62A U80A], 0.15; that for UAACAGGGGGCCACAGCAAAGGCGUUCACGUCGCAGCCCCUGUCAGACUCUGGUGAAUCUGCGAAUUCUGCUGUAUAUCUC [G19A A21G U48C], 0.16.
The result for UAACAGGGGGCCACAGCACAAGCGUUCACGUCGCAGCCCCUGUCAGAUUCUUGUGGAUCUGCGAAUUCUGCUGUAUAUCUC [G19C G52U A56G] reads 0.31.
As to UAACAGGGGGCCACAGCAAAAGCGUUCACGUCGCAGCCCCCGUCAGGCUCUGGUGAAUCUGCGGAUUCUGCUGUAUAUCUC [G19A U41C A47G U48C A64G], the self-cleavage was determined as 0.05.
As to UAACAGGGGGCCACAGCACAAGCGUUCACGUCGCAGCCCCUGUCAGAUUCUGGUGAAUCUGCGUGUCCUGCUGUAUAUCUC [G19C A64U A65G U67C], the self-cleavage amounted to 0.1.
Take UAACAGGGGGCCACAGCAAAAUCGUUCACGUCGCAGCCUCUGUCAGGUUCUGGUGACUCUGCAAAUUCUGCUGUAUAUCUC [G19A G22U C39U A47G A57C G63A]: the self-cleavage turned out to be 0.09.
Turning to UAACAGGGGGCCACAGCACAAGCCUUCACGUCGCAGCCCCUGUCAGAUUCUUGUGAAUCUGCGAAAUCUGCUGCAUAUCUC [G19C G24C G52U U66A U74C], the self-cleavage was 0.08.
As to UAACAGGGGGCCACAGCAAAAGCGUUCACGUCGCGGCCCCUGUCAGAUUCUGGUGGAUCAGCGAAUUCCGCUGUAUAUCUC [G19A A35G A56G U60A U69C], the self-cleavage came out at 0.05.
